The list shows a part of the results.
Experiments:
Test in all cases: glycan array binding signal (z-score within array); higher = stronger binding
Conditions in all cases: glycan notation: IUPAC condensed, linker removed
[1] = target: Neu5Ac(a2-3)GalNAc(b1-4)GlcNAc
How it was run: (§1)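 Glycan array binding is given as a within-array Z-score, which can be read as non-binding when negative. The arrays, 3228 of them, came from the Consortium for Functional Glycomics database and were retained only where the protein sequence was available. Z-scores were averaged across arrays of the same protein sequence at different concentrations or buffers and across linkers.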

[2] = target: Neu5Ac(a2-3)[GalNAc(b1-4)]Gal(b1-4)Glc
How it was run: as §1

[3] = target: Neu5Ac(a2-3)[GalNAc(b1-4)]Gal(b1-4)GlcNAc
How it was run: as §1

[4] = target: Neu5Ac(a2-3)[GalNAc(b1-4)]Gal(b1-4)GlcNAc(b1-3)GalNAc
How it was run: as §1

[5] = target: Neu5Ac(a2-3)[Neu5Ac(a2-6)]GalNAc
How it was run: as §1

[6] = target: Neu5Ac(a2-6)Gal
How it was run: as §1

[7] = target: Neu5Ac(a2-6)Gal(b1-3)GlcNAc(b1-3)[Gal(b1-4)GlcNAc(b1-6)]Gal(b1-4)Glc
How it was run: as §1

[8] = target: Neu5Ac(a2-6)Gal(b1-4)Glc
How it was run: as §1

[9] = target: Neu5Ac(a2-6)Gal(b1-4)GlcNAc
How it was run: as §1

[10] = target: Neu5Ac(a2-6)Gal(b1-4)GlcNAc(b1-2)Man
How it was run: as §1

[11] = target: Neu5Ac(a2-6)Gal(b1-4)GlcNAc(b1-2)Man(a1-3)Man(b1-4)GlcNAc(b1-4)GlcNAc
How it was run: as §1

[12] = target: Neu5Ac(a2-6)Gal(b1-4)GlcNAc(b1-2)Man(a1-3)[Gal(b1-4)GlcNAc(b1-2)Man(a1-6)]Man(b1-4)GlcNAc(b1-4)GlcNAc
How it was run: as §1

[13] = target: Neu5Ac(a2-6)Gal(b1-4)GlcNAc(b1-2)Man(a1-3)[GlcNAc(b1-2)Man(a1-6)]Man(b1-4)GlcNAc(b1-4)GlcNAc
How it was run: as §1

[14] = target: Neu5Ac(a2-6)Gal(b1-4)GlcNAc(b1-2)Man(a1-3)[GlcNAc(b1-4)][Neu5Ac(a2-6)Gal(b1-4)GlcNAc(b1-2)Man(a1-6)]Man(b1-4)GlcNAc(b1-4)GlcNAc
How it was run: as §1

[15] = target: Neu5Ac(a2-6)Gal(b1-4)GlcNAc(b1-2)Man(a1-3)[Man(a1-6)]Man(b1-4)GlcNAc(b1-4)GlcNAc
How it was run: as §1

[16] = target: Neu5Ac(a2-6)Gal(b1-4)GlcNAc(b1-2)Man(a1-3)[Neu5Ac(a2-3)Gal(b1-4)GlcNAc(b1-2)Man(a1-6)]Man(b1-4)GlcNAc(b1-4)GlcNAc
How it was run: as §1

[17] = target: Neu5Ac(a2-6)Gal(b1-4)GlcNAc(b1-2)Man(a1-3)[Neu5Ac(a2-6)Gal(b1-4)GlcNAc(b1-2)Man(a1-6)]Man(b1-4)GlcNAc(b1-4)GlcNAc
How it was run: as §1

[18] = target: Neu5Ac(a2-6)Gal(b1-4)GlcNAc(b1-2)Man(a1-3)[Neu5Ac(a2-6)Gal(b1-4)GlcNAc(b1-2)Man(a1-6)]Man(b1-4)GlcNAc(b1-4)[Fuc(a1-6)]GlcNAc
How it was run: as §1

[19] = target: Neu5Ac(a2-6)Gal(b1-4)GlcNAc(b1-2)Man(a1-6)Man(b1-4)GlcNAc(b1-4)GlcNAc
How it was run: as §1

[20] = target: Neu5Ac(a2-6)Gal(b1-4)GlcNAc(b1-2)Man(a1-6)[Gal(b1-4)GlcNAc(b1-2)Man(a1-3)]Man(b1-4)GlcNAc(b1-4)GlcNAc
How it was run: as §1

[21] = target: Neu5Ac(a2-6)Gal(b1-4)GlcNAc(b1-2)Man(a1-6)[GlcNAc(b1-2)Man(a1-3)]Man(b1-4)GlcNAc(b1-4)GlcNAc
How it was run: as §1

[22] = target: Neu5Ac(a2-6)Gal(b1-4)GlcNAc(b1-2)Man(a1-6)[Man(a1-3)]Man(b1-4)GlcNAc(b1-4)GlcNAc
How it was run: as §1

[23] = target: Neu5Ac(a2-6)Gal(b1-4)GlcNAc(b1-2)[Neu5Ac(a2-6)Gal(b1-4)GlcNAc(b1-4)]Man(a1-3)[GlcNAc(b1-4)][Neu5Ac(a2-6)Gal(b1-4)GlcNAc(b1-2)[Neu5Ac(a2-6)Gal(b1-4)GlcNAc(b1-6)]Man(a1-6)]Man(b1-4)GlcNAc(b1-4)GlcNAc
How it was run: as §1

[24] = target: Neu5Ac(a2-6)Gal(b1-4)GlcNAc(b1-2)[Neu5Ac(a2-6)Gal(b1-4)GlcNAc(b1-4)]Man(a1-3)[GlcNAc(b1-4)][Neu5Ac(a2-6)Gal(b1-4)GlcNAc(b1-4)Man(a1-6)]Man(b1-4)GlcNAc(b1-4)GlcNAc
How it was run: as §1

[25] = target: Neu5Ac(a2-6)Gal(b1-4)GlcNAc(b1-2)[Neu5Ac(a2-6)Gal(b1-4)GlcNAc(b1-6)]Man(a1-6)[Neu5Ac(a2-6)Gal(b1-4)GlcNAc(b1-2)Man(a1-3)][GlcNAc(b1-4)]Man(b1-4)GlcNAc(b1-4)GlcNAc
How it was run: as §1

[26] = target: Neu5Ac(a2-6)Gal(b1-4)GlcNAc(b1-3)Gal(b1-3)GlcNAc
How it was run: as §1

[27] = target: Neu5Ac(a2-6)Gal(b1-4)GlcNAc(b1-3)Gal(b1-4)GlcNAc
How it was run: as §1

[28] = target: Neu5Ac(a2-6)Gal(b1-4)GlcNAc(b1-3)Gal(b1-4)GlcNAc(b1-2)Man(a1-3)[Neu5Ac(a2-6)Gal(b1-4)GlcNAc(b1-3)Gal(b1-4)GlcNAc(b1-2)Man(a1-6)]GalNAc
How it was run: as §1

[29] = target: Neu5Ac(a2-6)Gal(b1-4)GlcNAc(b1-3)Gal(b1-4)GlcNAc(b1-3)Gal(b1-4)GlcNAc
How it was run: as §1

[30] = target: Neu5Ac(a2-6)Gal(b1-4)GlcNAc(b1-3)Gal(b1-4)GlcNAc(b1-3)Gal(b1-4)GlcNAc(b1-2)Man(a1-3)[Neu5Ac(a2-6)Gal(b1-4)GlcNAc(b1-3)Gal(b1-4)GlcNAc(b1-3)Gal(b1-4)GlcNAc(b1-2)Man(a1-6)]GalNAc
How it was run: as §1

[31] = target: Neu5Ac(a2-6)Gal(b1-4)GlcNAc(b1-3)Gal(b1-4)GlcNAc(b1-3)GalNAc
How it was run: as §1

[32] = target: Neu5Ac(a2-6)Gal(b1-4)GlcNAc(b1-3)Gal(b1-4)GlcNAc(b1-3)[Neu5Ac(a2-6)Gal(b1-4)GlcNAc(b1-3)Gal(b1-4)GlcNAc(b1-6)]GalNAc
How it was run: as §1

[33] = target: Neu5Ac(a2-6)Gal(b1-4)GlcNAc(b1-3)Gal(b1-4)GlcNAc(b1-6)[Gal(b1-3)]GalNAc
How it was run: as §1

[34] = target: Neu5Ac(a2-6)Gal(b1-4)GlcNAc(b1-3)Gal(b1-4)[Fuc(a1-3)]GlcNAc(b1-3)Gal(b1-4)[Fuc(a1-3)]GlcNAc
How it was run: as §1

[35] = target: Neu5Ac(a2-6)Gal(b1-4)GlcNAc(b1-3)GalNAc
How it was run: as §1

[36] = target: Neu5Ac(a2-6)Gal(b1-4)GlcNAc(b1-3)[Neu5Ac(a2-6)Gal(b1-4)GlcNAc(b1-6)]GalNAc
How it was run: as §1

[37] = target: Neu5Ac(a2-6)Gal(b1-4)GlcNAc(b1-6)GalNAc
How it was run: as §1

[38] = target: Neu5Ac(a2-6)Gal(b1-4)GlcNAc(b1-6)[Gal(b1-3)GlcNAc(b1-3)]Gal(b1-4)Glc
How it was run: as §1

B1: AAA (Anguilla anguilla), Q7SIC1 (protein)
chain: VIPEGYTQENVAVRGKATQSAQLRGEHAANSEASNAIDGNRDSNFYHGSCTHSSGQANPWWRVDLLQVYTITSVTITNRGDCCGERISGAEINIGQHLASNGVNNPECSVIGSMATGETKTFHCPAPMIGRYVVTYLPTSESLHLCEVEVNVDKPAAA
Question: Which “glycan array binding signal (z-score)” value [1] does the source give for B1 here?
Answer: -0.131

Question: What about the “glycan array binding signal (z-score)” value [2] of the same binder?
Answer: -0.131

Question: What about the “glycan array binding signal (z-score)” value [3] of the same binder?
Answer: -0.265

Question: What about the “glycan array binding signal (z-score)” value [4] of the same binder?
Answer: 0.511

Question: And the “glycan array binding signal (z-score)” value [5]?
Answer: -0.516

Question: And the “glycan array binding signal (z-score)” value [6]?
Answer: -0.203

Question: What about the “glycan array binding signal (z-score)” value [7] of the same binder?
Answer: -0.118

Question: And the “glycan array binding signal (z-score)” value [8]?
Answer: -0.134

Question: And the “glycan array binding signal (z-score)” value [9]?
Answer: -0.147

Question: What about the “glycan array binding signal (z-score)” value [10] of the same binder?
Answer: -0.26

Question: And the “glycan array binding signal (z-score)” value [11]?
Answer: -0.162

Question: What about the “glycan array binding signal (z-score)” value [12] of the same binder?
Answer: -0.121

Question: And the “glycan array binding signal (z-score)” value [13]?
Answer: -0.131

Question: What about the “glycan array binding signal (z-score)” value [14] of the same binder?
Answer: -0.297

Question: What about the “glycan array binding signal (z-score)” value [15] of the same binder?
Answer: -0.147

Question: What about the “glycan array binding signal (z-score)” value [16] of the same binder?
Answer: -0.232

Question: And the “glycan array binding signal (z-score)” value [17]?
Answer: -0.44

Question: And the “glycan array binding signal (z-score)” value [18]?
Answer: -0.096

Question: And the “glycan array binding signal (z-score)” value [19]?
Answer: -0.176

Question: And the “glycan array binding signal (z-score)” value [20]?
Answer: -0.183

Question: And the “glycan array binding signal (z-score)” value [21]?
Answer: -0.127

Question: And the “glycan array binding signal (z-score)” value [22]?
Answer: -0.316

Question: What about the “glycan array binding signal (z-score)” value [23] of the same binder?
Answer: -0.255

Question: What about the “glycan array binding signal (z-score)” value [24] of the same binder?
Answer: -0.208

Question: What about the “glycan array binding signal (z-score)” value [25] of the same binder?
Answer: -0.245

Question: What about the “glycan array binding signal (z-score)” value [26] of the same binder?
Answer: -0.285

Question: And the “glycan array binding signal (z-score)” value [27]?
Answer: -0.202

Question: And the “glycan array binding signal (z-score)” value [28]?
Answer: 0.057

Question: What about the “glycan array binding signal (z-score)” value [29] of the same binder?
Answer: -0.232

Question: And the “glycan array binding signal (z-score)” value [30]?
Answer: 0.731

Question: And the “glycan array binding signal (z-score)” value [31]?
Answer: -0.256

Question: What about the “glycan array binding signal (z-score)” value [32] of the same binder?
Answer: 1.69

Question: What about the “glycan array binding signal (z-score)” value [33] of the same binder?
Answer: 0.092

Question: What about the “glycan array binding signal (z-score)” value [34] of the same binder?
Answer: -0.184

Question: And the “glycan array binding signal (z-score)” value [35]?
Answer: -0.181

Question: And the “glycan array binding signal (z-score)” value [36]?
Answer: -0.149

Question: What about the “glycan array binding signal (z-score)” value [37] of the same binder?
Answer: -0.18

Question: What about the “glycan array binding signal (z-score)” value [38] of the same binder?
Answer: -0.182

From the supplement of paper PMC8728848
